About 2,200 (0.71%) of roughly 310,000 compounds showed an effect of 50% or more. The effect is printed as a negative number. The list shows a part of the results.
These compounds were tested against human ether-à-go-go-related gene (hERG) potassium channel (human, UniProt Q12809) (assay: primary screen, population patch clamp on CHO cells stably expressing hERG).
Chain of human ether-à-go-go-related gene (hERG) potassium channel (Q12809 whole entry, looked up): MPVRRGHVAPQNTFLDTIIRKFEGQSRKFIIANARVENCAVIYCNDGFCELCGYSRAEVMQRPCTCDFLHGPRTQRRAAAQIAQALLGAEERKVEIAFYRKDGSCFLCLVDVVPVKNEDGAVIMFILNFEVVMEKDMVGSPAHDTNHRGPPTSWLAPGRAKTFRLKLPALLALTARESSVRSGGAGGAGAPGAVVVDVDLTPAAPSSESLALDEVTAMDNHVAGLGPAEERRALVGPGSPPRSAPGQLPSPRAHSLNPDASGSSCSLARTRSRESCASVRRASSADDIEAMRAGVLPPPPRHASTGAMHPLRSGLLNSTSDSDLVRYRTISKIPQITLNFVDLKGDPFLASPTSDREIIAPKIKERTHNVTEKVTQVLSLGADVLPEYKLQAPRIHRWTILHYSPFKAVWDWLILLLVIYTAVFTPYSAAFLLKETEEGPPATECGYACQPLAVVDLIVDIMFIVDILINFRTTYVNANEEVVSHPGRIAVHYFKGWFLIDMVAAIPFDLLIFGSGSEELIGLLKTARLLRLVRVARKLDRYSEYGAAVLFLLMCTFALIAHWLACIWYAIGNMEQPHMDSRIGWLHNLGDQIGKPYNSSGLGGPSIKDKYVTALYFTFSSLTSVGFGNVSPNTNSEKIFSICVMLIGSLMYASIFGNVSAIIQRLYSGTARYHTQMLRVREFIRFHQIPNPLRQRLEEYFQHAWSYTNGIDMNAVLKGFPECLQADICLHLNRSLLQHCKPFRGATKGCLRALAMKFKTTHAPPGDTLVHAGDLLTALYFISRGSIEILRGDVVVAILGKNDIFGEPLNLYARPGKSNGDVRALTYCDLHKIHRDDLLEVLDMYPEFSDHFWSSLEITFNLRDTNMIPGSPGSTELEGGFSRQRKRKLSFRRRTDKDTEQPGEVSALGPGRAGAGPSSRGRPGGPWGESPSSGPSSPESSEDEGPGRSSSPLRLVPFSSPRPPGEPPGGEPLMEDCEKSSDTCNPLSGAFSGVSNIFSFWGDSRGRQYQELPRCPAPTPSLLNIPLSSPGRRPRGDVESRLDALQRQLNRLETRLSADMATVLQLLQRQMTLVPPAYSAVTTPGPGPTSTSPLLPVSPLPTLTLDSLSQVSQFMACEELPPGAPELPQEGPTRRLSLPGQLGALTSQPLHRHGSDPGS

Row | SMILES | hERG current change (%, negative = inhibition) at 1uM
1 | COc1ccc2[nH]cc(CCNS(=O)(=O)c3ccccc3)c2c1 | 12.7%
2 | Cc1cccc(-c2nc(Nc3ccc(N4CCOCC4)cc3)c3ccccc3n2)c1 | 17.9%
3 | O=C1CC(c2ccco2)CC(O)=C1C=NCCO (stereo not shown) | 12.9%
4 | Cc1cccc(C)c1NC(=O)CN(C)CC(=O)Nc1ccccc1Oc1ccccc1 | 15.5%
5 | CCCN1CCC(NC2CCC(O)CC2)CC1 (stereo not shown) | 5.19%
6 | Cc1ccc(CNS(=O)(=O)c2c(C)n(C)c(=O)n(C)c2=O)cc1 | 11.3%
7 | COc1ccc2c(c1)CCNC2Cc1ccc(OC)c(O)c1 (stereo not shown) | 8.46%
8 | CS(=O)(=O)c1ccc2nc(NC(=O)c3ccccc3Br)sc2c1 | 6.45%
9 | COc1cccc(OCc2nc(-c3cccc([N+](=O)[O-])c3)no2)c1 | 12.3%
10 | CCc1noc(C)c1C(=O)N1CCC(CCC(=O)Nc2cccc(OC)c2)CC1 | 4.89%
11 | Cc1cnn(-c2nc(-c3cccs3)cc(C(F)(F)F)n2)c1 | 5.88%
12 | Cc1sc2ncnc(N3CCC(C(=O)Nc4nnc(SCc5ccccc5F)s4)CC3)c2c1C | 10.3%
13 | Cc1cc(=O)nc2c3ccccc3n(CC(=O)Nc3ccccc3Br)n12 | -0.905%
14 | COc1ccc(S(=O)(=O)n2cccc2)cc1OC | 11.1%
15 | NC(=O)CSc1oc(-c2ccco2)nc1S(=O)(=O)c1ccccc1 | -9.51%
16 | CN1C(=O)/C(=C2\SC(=S)N(CCCCCC(=O)O)C2=O)c2ccccc21 | 7.08%
17 | CCCC1=C(C(=O)OCC)C(c2ccco2)C(C#N)=C(N)O1 (stereo not shown) | 4.38%
18 | CCCSc1nnc2nc(C)cc(C)n12 | 6.16%
19 | CCOC(=O)c1c(C)[nH]c(C(=O)OCC(=O)NCCc2ccc(OCC)c(OCC)c2)c1C | 25.4%
20 | Cc1ccnc(NS(=O)(=O)c2ccc(NC(=O)Cc3ccccc3)cc2)n1 | 8.81%
21 | Cc1sc2nc(CN3CCOCC3)nc(N3CCN(S(=O)(=O)c4ccccc4)CC3)c2c1C | -0.853%
22 | Cc1cc(O)ccc1NC(=S)NC(=O)c1cncc(Br)c1 | 14.5%
23 | Cn1c(Cl)c(/C=N/OC(=O)c2ccc(Cl)cc2)c2ccccc21 | 4.72%
24 | Cc1cc(C)c(OCC(=O)Nc2ccc3c(c2)OCO3)cc1C | 4.3%
25 | CCOC(=O)c1c(NC(=S)NC)sc2c1CCCC2 | 11.1%

From paper PMC4336329 (PLoS ONE, 2015)
